Laboratory results from ChEMBL document CHEMBL4888484, “Replenishing the malaria drug discovery pipeline: Screening and hit evaluation of the MMV Hit Generation Library 1 (HGL1) against asexual blood stage Plasmodium falciparum ,using a nano luciferase reporter read-out” (2022).
The whole screen tested about 150,000 compounds, of which about 540 (0.36%) showed an effect of 50% or more. Some of the results follow.

These compounds were tested on Plasmodium falciparum (assay: Primary screen in NF54 nanoGlo assay, in single point, at 2uM, 72h; a lower Z score goes with more inhibition). Conditions: timepoint 72 hour.
Type: functional, Erythrocyte

| SMILES | % Inhibition [%] | Z score |
| --- | --- | --- |
| CCc1nccn1CC(=O)Nc1cc(C)nn1CCC(C)C | -5 | 0.67 |
| Cc1ccc2nc(-c3ccccc3F)c(NC(=O)Nc3ccc(F)cc3F)n2c1 | 21 | -3.43 |
| CC(=O)NCCNC(=O)Nc1cc(Cl)c(Cl)cc1F | 1 | -0.14 |
| CC(C)(C)N(CC(=O)N(Cc1ccccc1)Cc1cccs1)S(=O)(=O)c1ccccc1 | -4 | 0.78 |
| Cn1cncc1C(=O)N1CC(Cc2cccc(Br)c2)C1 | 10 | -1.33 |
| Cn1c(CN2CC[C@H](NC(=O)c3ccccn3)[C@@H](O)C2)nc2ccccc21 | -13 | 1.2 |
| O=C1c2ccc(Br)cc2C(=O)N1Cc1nnc(C2CC2)o1 | -17 | 1.83 |
| O=C(Oc1ccc(OC(=O)N2CCOCC2)cc1)c1ccccc1 | -6 | 1.11 |
| Cn1cc(CCc2nc(C3CCCC3)nn2CC(F)(F)F)cn1 | 2 | -0.26 |
| C=C1C(C(=O)Nc2ccc3c(c2)OCCO3)[C@H]1C(=O)Nc1ccc2c(c1)OCCO2 (some centres undefined) | 29 | -2.64 |
| N#CCN1CCOc2ccccc2C1=O | -9 | 0.99 |
| CC1CC(N2CCCC(n3cnc4ccccc43)C2)CN1C (centres undefined) | -5 | 0.43 |
| Cn1ccnc1[C@H]1OCC[C@@H]1NC(=O)NC(C1CCCCC1)C(F)(F)F (some centres undefined) | -2 | 0.29 |
| Fc1ccc(CN(Cc2nc3cc(F)ccc3o2)C2CCOCC2)cc1 | -6 | 0.58 |
| COc1ncc(-c2cccc(-c3cc[nH]n3)c2)c(OC)n1 | -6 | 0.85 |
| Cc1cc(S(=O)(=O)N[C@@H](C)c2ncnn2C)c(C)s1 | -21 | 2.78 |
| CC(C)NC(=O)Nc1ccc(N(C)C)c(CN(Cc2ccco2)C(=O)C(C)(C)C)c1 | -15 | 1.61 |
| CC[C@@H](c1cccc(OC)c1)N(C)Cc1n[nH]cc1C | -7 | 0.92 |
| Cc1cccc(C(=O)NCCNc2cc(-n3cnc(C)c3C)ncn2)c1 | -20 | 1.77 |
| c1ccc(CNCc2ccc(O[C@H]3CCOC3)cc2)nc1 | -8 | 1.19 |
| Cc1noc(C)c1CC(=O)N1CC[C@@H](c2ccccc2Cl)S(=O)(=O)CC1 | 3 | -0.46 |

| SMILES | % Inhibition [%] | Z score |
| --- | --- | --- |
| CCOc1ccc(NC(=O)CCC(=O)N2CC(=O)NC(=O)C2)cc1 | -15 | 1.92 |
| CC(C)(C)Oc1ccncc1NC(=O)CS(=O)(=O)C1CCCC1 | -17 | 3.01 |
| O=C(c1ccccc1)[C@@H]1CCCN1S(=O)(=O)N1CCCCC1 | 0 | -0.07 |
| C/C=C(\C)CN1CC[C@H](CNC(=O)CC2CC2)C1 | 0 | 0.02 |
| CC1CN(c2ccnc(C(=O)Nc3ccnn3C(C)C)c2)CC(C)O1 (centres undefined) | -1 | 0.09 |
| COCc1ncc(C)n1C[C@H]1CCCN(C(=O)Nc2ccc(C)c(C)c2)C1 | -8 | 0.98 |
| COc1ccc(-c2n[nH]c(=O)c3c2CCCC3)cc1S(=O)(=O)N1CCCCCC1 | -12 | 1.36 |
| CCCC(C#N)NC(=O)C1CNC(=O)N1 (centres undefined) | -7 | 0.9 |
| C1CCC(n2nnnc2C2CCOCC2)C1 | 7 | -0.95 |
| Cc1cccc(CNC(=O)N(CCO)CCN(C)C)c1 | -23 | 2.3 |
| O[C@@H](CNCc1ccsc1C(F)(F)F)c1cc(Cl)c2c(c1)OCCO2 | 22 | -4.11 |
| Cc1nnc2ccc(-c3noc(-c4ccccc4)n3)cn12 | -7 | 1.33 |
| COc1ccc(CN[C@H]2CCOC(C)(C)C2)cc1OCc1cccnc1 | -12 | 1.7 |
| Cc1ccc(S(=O)(=O)C2(C(=O)NCc3ccccn3)CCCC2)cc1C | 7 | -1.3 |
| O=C(c1ccc2c(c1)OCO2)N1CC[C@@]2(CCCN(CC3CCC3)C2=O)C1 | -12 | 2.15 |
| CCCc1nnc(C(=O)N(C)Cc2cnccn2)o1 | 3 | -0.5 |
| O=C(NCc1ccc2c(c1)OCO2)c1ccc(-c2cnc(Oc3ccc(F)cc3)nc2)cc1 | 11 | -1.7 |
| CN(C)CCCNc1nc(N2CCCC2)c2c(c1C#N)CCN(C)C2 | 39 | -1.31 |
| CC1COC(c2ccccc2)C(C)N1CC(=O)NCc1ccccn1 (centres undefined) | -14 | 2.04 |
| CC[C@@H](C(=O)N1CCC(N2CCOC2=O)CC1)n1cccn1 | -5 | 0.86 |
| Cc1cc(-c2nc(Cn3cncn3)nn2CC2CCCCC2)nc(C)n1 | 7 | -1.2 |
